The campaign covered roughly 52,000 compounds. About 1,700 (3.3%) were called active. No stated cut-off is given here; in the data, active means survival mostly below about 52% (no sharp cut-off); inactive means mostly above about 56%. The list shows a part of the results.

The subject of this experiment is Wild type. The experiment is described as follows: growth inhibition of S. aureus wild type versus tarO mutant, primary screen, teichoic acid synthesis inhibitors, RN4220, OD600 (AID 463173). The following applies: S. aureus RN4220 wild type/DeltatarO growth, OD600, 18 h, stronger effect = lower value, screened at 18.75 µg/mL (by protocol).
Consider `COc1cccc(NC(=O)CN2C(=O)CSc3ccc(S(=O)(=O)N4CCCC4)cc32)c1`, for which the survival is inactive: 107%.
To `COc1ccc(N2CCN(C(=O)c3cnn(-c4ccc(F)cc4)c3-n3cccc3)CC2)cc1` belongs inactive: 71%; to `COC(=O)COc1ccc2oc(-c3ccc(OC)cc3)cc(=O)c2c1`, inactive: 58%; to `Clc1ccc2c(c1)-c1c(cnc3cc(-c4ccccc4)nn13)CO2`, inactive: 78%.
In the case of `O=C(Nc1ccc(Br)cc1F)C1CCN(c2nc3ccccc3[nH]2)CC1`, the survival was inactive: 99%.
For the compound `CCOC(=O)c1cc2ccccc2[nH]c1=O`, the survival is inactive: 119%.
To `CCC1CCCCN1CCCNC(=O)CN1C(=O)c2cccnc2Oc2ccc(C)cc21` (stereo not drawn) belongs inactive: 74%.
Regarding `CSc1cccc(Nc2cc(C(=O)NCCc3ccc(Cl)cc3)c3ccccc3n2)c1`, the survival was inactive: 120%.
Then `Cc1ccc(CNC(=O)CCc2c(C)c3ccc(O)c(C)c3oc2=O)cc1`, with inactive: 87%; and `O=C1CCCc2cc(S(=O)(=O)N3CCCC(C(=O)Nc4ccc(F)c(Cl)c4)C3)ccc2N1` (stereo not drawn), with inactive: 67%; and `CCOc1ccc(C(=O)Nc2nnc(S(=O)(=O)Nc3ccccc3)s2)cc1`, with inactive: 49%.
To `CCOc1cc2[nH]c(=O)n(CCCCC(=O)N3CCN(c4ccc(OC)cc4)CC3)c(=O)c2cc1OCC` belongs inactive: 71%; to `Cc1ccc2[nH]c(C)cc(=S)c2c1`, inactive: 98%.
To `CCOc1ccc2nc(N3CCC(C(=O)Nc4ccccc4CC)CC3)sc2c1` belongs inactive: 77%.
Take `CC1CN(C(=O)N2CCC(C(=O)N3CCN(c4ccccc4)CC3)CC2)c2cc(Cl)ccc2O1` (stereo not drawn): the survival was inactive: 82%.
Then `Cc1ccc(CCNc2ncnc3onc(-c4ccc(F)cc4)c23)cc1`, with inactive: 84%.
Regarding `CCOC(=O)c1ccc2[nH]c3c(c2c1)CCCCC3=O`, the survival is inactive: 120%.
Then `CCN(CC)C(=O)c1sc2c(c1C)c(=O)n(-c1ccc(Cl)c(Cl)c1)c(=O)n2Cc1cc(=O)n2ccccc2n1`, with inactive: 118%.
Turning to `COc1cccc(CNC(=O)Cn2c(=O)n3nc(-c4cccc(F)c4)nc3c3ccccc32)c1`, the survival is inactive: 73%.
To `CC(=O)Nc1ccc(S(=O)(=O)N2CCC(c3nnc(-c4ccc(C)cc4)o3)CC2)cc1` belongs inactive: 92%.
Then `CC(C)C(=O)N1c2nc(-c3ccco3)nn2C2(CCCCC2)[C@@H]2CCCC[C@@H]21`, with inactive: 94%.
As to `Cc1oc2c(cc(NS(=O)(=O)c3ccc(C(C)C)cc3)c3ccccc32)c1C(=O)O`, the survival was inactive: 60%.
Then `Cc1ccc(S(=O)(=O)c2[nH]c(-c3ccccc3)nc2SCC(N)=O)cc1`, with inactive: 79%; and `COc1ccc(NC(=O)CCn2c(=O)c3cccn3c3cccnc32)cc1Cl`, with inactive: 92%.
Then `O=C(Cn1c(=O)n(CCCS(=O)(=O)C2CCCCC2)c(=O)c2ccccc21)Nc1ccccc1C(F)(F)F`, with inactive: 81%; and `Cc1ccc(C)c(N2CCN(C(=O)CCS(=O)(=O)c3cc4c(cc3Cl)NC(=O)CO4)CC2)c1`, with inactive: 74%; and `CCn1c(SCC(=O)NC(C)(C)C)nnc1-c1cccc(C)c1`, with inactive: 101%.
To `COC(=O)c1sc2ncccc2c1-n1c(C)ccc1C` belongs inactive: 80%; to `Cc1cc(Br)c2c3c(c(N)c(=O)[nH]c13)-c1ccccc1C2=O`, inactive: 103%; to `COc1ccccc1CNS(=O)(=O)c1ccc2c(c1)CC(=O)N2C`, inactive: 119%.
On to `CCOC(=O)N1CCN(C(=O)c2c(C)nn(-c3cccc(C)c3)c2-n2cccc2)CC1`, for which the survival was active: -3%.
For the compound `COc1ccc(CNC(=O)C2=C(C)C(=O)OC23CCCCC3)cc1`, the survival is inactive: 85%.
To `COc1ccc(-n2ncc3c2ncn2nc(COc4ccc(Cl)cc4)nc32)cc1` belongs inactive: 118%; to `CCCSc1nnc2c(n1)OC(c1ccc(Br)s1)Nc1ccccc1-2` (stereo not drawn), inactive: 88%; to `O=C(NCc1ccc2c(c1)CCN2C(=O)c1ccccc1)c1ccccc1`, inactive: 63%.
With `CCOc1ccccc1NC(=O)C(CC)Sc1nc2ncccc2[nH]1` (stereo not drawn), the survival was inactive: 60%.
To `Cc1ccc2oc3c(c(=O)c2c1)C(c1ccccc1F)N(CCCN(C)C)C3=O` (stereo not drawn) belongs inactive: 76%; to `O=C(Cn1ncc2ccsc2c1=O)N1CCN(c2ccc(F)cc2)CC1`, inactive: 72%.
Take `CCC1CN(C(=O)Nc2cccc3c2CCCC3)c2cc(Cl)ccc2O1` (stereo not drawn): the survival is inactive: 84%.
As to `Cc1ccc(-n2ncc3c(N4CCC(C(N)=O)CC4)ncnc32)cc1`, the survival is inactive: 47%.
Then `COc1ccc(CCNC(=O)CSc2cn(CCNC(=O)c3cccc(C(F)(F)F)c3)c3ccccc23)cc1OC`, with inactive: 74%; and `Cc1cc(C(F)F)n2nc(C(=O)Nc3ccc(C(C)C)cc3)nc2n1`, with inactive: 68%; and `Cc1oc(-c2ccccc2Cl)nc1CS(=O)CC(=O)NCc1ccc(Cl)cc1` (stereo not drawn), with inactive: 68%.
To `O=C(Nc1ccccc1)N1CCCCC1` belongs inactive: 112%; to `Cc1ccc(S(=O)(=O)N2CCc3cc(C(=O)Nc4ccc(C(F)(F)F)cc4)ccc32)cc1`, inactive: 88%.
Then `COc1ccc(CNS(=O)(=O)c2cc3c4c(c2)CCN4C(=O)CC3)cc1`, with inactive: 133%; and `O=C(CSc1nc2c([nH]c3ccccc32)c(=O)n1-c1cccc(Cl)c1)NCC1CCCO1` (stereo not drawn), with inactive: 131%; and `Cc1ccc(COc2ccc(-c3cc(C(F)(F)F)n4nc(C)cc4n3)cc2)cc1`, with inactive: 126%.
As for `Fc1ccc(-c2ccc(CNCCSc3nnnn3-c3ccccc3)o2)cc1`, the survival was inactive: 35%.
`O=S(=O)(Nc1nc2ccccc2nc1Nc1ccccc1Br)c1ccccc1`: the survival was inactive: 122%.
Take `CC1CCc2c(sc(NC(=O)c3cc(-c4cccc(Cl)c4)on3)c2C(N)=O)C1` (stereo not drawn): the survival was inactive: 95%.
Then `Cc1ccc(NC(=O)Cc2coc3ccc(C(C)C)cc23)c(C)c1`, with inactive: 91%.
In the case of `COc1cccc(CNC(=O)C(C)n2ncn3cccc3c2=O)c1OC` (stereo not drawn), the survival is inactive: 88%.
Then `O=C(Cn1c2ncccc2c(=O)n1-c1ccccc1)NCc1ccccc1Cl`, with inactive: 86%; and `CCOc1ccc(-c2cn(-c3ccc(C)cc3)c(SCC(=O)Nc3ccc(C)cc3)n2)cc1`, with inactive: 73%; and `O=C(O)c1c(Cl)c(Cl)c(Cl)c(Cl)c1C(=O)N1CCCC1`, with inactive: 95%.
To `OC1(C#CCN2CCCCCC2)CCCCC1` belongs inactive: 108%; to `O=C(CSc1oc(-c2ccco2)nc1S(=O)(=O)c1ccc(Br)cc1)c1ccccc1`, inactive: 65%.

For the origin of these results see PubChem BioAssay AID463173 (ICCB-Longwood Screening Facility, Harvard Medical School, 2010).
